Changes are numbered by the printed parent chain; changes in the protein carry UniProt numbers. Some of the results follow.
T1: RBFOX1 RRM RbFoxmut (Fox-RRM*) (Homo sapiens, UniProt Q9NWB1 109-208, R118D;E147R;N151S;E152T)
T1 sequence: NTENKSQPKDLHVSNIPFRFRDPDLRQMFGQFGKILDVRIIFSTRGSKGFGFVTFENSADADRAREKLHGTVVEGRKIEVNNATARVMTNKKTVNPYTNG

B1: GAUACGC (DNA:RNA)
RNA: GGGAGACCGGAAUUCAGAUUGUCCGAUACGCUUAAAUCCCGUCGUAGCCACCA
DNA 1: CAATCTGAATTCCGGTCTCCC
DNA 2: TGGTGGCTACGACGGGATT
B2: GCGACCC (DNA:RNA)
RNA: B1 RNA with A26C, U27G, G30C
DNA 1: CAATCTGAATTCCGGTCTCCC
DNA 2: TGGTGGCTACGACGGGATT
B3: AGCAGCU (DNA:RNA)
RNA: B1 RNA with G25A, A26G, U27C, C29G, G30C, C31U
DNA 1: CAATCTGAATTCCGGTCTCCC
DNA 2: TGGTGGCTACGACGGGATT
B4: ACCACUA (DNA:RNA)
RNA: B1 RNA with G25A, A26C, U27C, G30U, C31A
DNA 1: CAATCTGAATTCCGGTCTCCC
DNA 2: TGGTGGCTACGACGGGATT
B5: CUUGACA (DNA:RNA)
RNA: B1 RNA with G25C, A26U, A28G, C29A, G30C, C31A
DNA 1: CAATCTGAATTCCGGTCTCCC
DNA 2: TGGTGGCTACGACGGGATT
B6: UUUACUU (DNA:RNA)
RNA: B1 RNA with G25U, A26U, G30U, C31U
DNA 1: CAATCTGAATTCCGGTCTCCC
DNA 2: TGGTGGCTACGACGGGATT
B7: CGGCAAU (DNA:RNA)
RNA: GGGAGACCGGAAUUCAGAUUGUCCCGGCAAUUUAAAUCCCGUCGUAGCCACCA
DNA 1: CAATCTGAATTCCGGTCTCCC
DNA 2: TGGTGGCTACGACGGGATT
B8: AGAUAGC (DNA:RNA)
RNA: B7 RNA with C25A, G27A, C28U, A30G, U31C
DNA 1: CAATCTGAATTCCGGTCTCCC
DNA 2: TGGTGGCTACGACGGGATT
B9: CUCAUGG (DNA:RNA)
RNA: B1 RNA with G25C, A26U, U27C, C29U, C31G
DNA 1: CAATCTGAATTCCGGTCTCCC
DNA 2: TGGTGGCTACGACGGGATT
B10: AGACAGA (DNA:RNA)
RNA: B7 RNA with C25A, G27A, A30G, U31A
DNA 1: CAATCTGAATTCCGGTCTCCC
DNA 2: TGGTGGCTACGACGGGATT
B11: AGCAGAU (DNA:RNA)
RNA: B7 RNA with C25A, G27C, C28A, A29G
DNA 1: CAATCTGAATTCCGGTCTCCC
DNA 2: TGGTGGCTACGACGGGATT
B12: UGAUAGU (DNA:RNA)
RNA: B7 RNA with C25U, G27A, C28U, A30G
DNA 1: CAATCTGAATTCCGGTCTCCC
DNA 2: TGGTGGCTACGACGGGATT
B13: AGGCGUA (DNA:RNA)
RNA: B7 RNA with C25A, A29G, A30U, U31A
DNA 1: CAATCTGAATTCCGGTCTCCC
DNA 2: TGGTGGCTACGACGGGATT
B14: AAUACAC (DNA:RNA)
RNA: B1 RNA with G25A, G30A
DNA 1: CAATCTGAATTCCGGTCTCCC
DNA 2: TGGTGGCTACGACGGGATT
B15: AGGUCUC (DNA:RNA)
RNA: B7 RNA with C25A, C28U, A29C, A30U, U31C
DNA 1: CAATCTGAATTCCGGTCTCCC
DNA 2: TGGTGGCTACGACGGGATT
B16: UCGACAU (DNA:RNA)
RNA: B7 RNA with C25U, G26C, C28A, A29C
DNA 1: CAATCTGAATTCCGGTCTCCC
DNA 2: TGGTGGCTACGACGGGATT
B17: UUCCUGG (DNA:RNA)
RNA: B7 RNA with C25U, G26U, G27C, A29U, A30G, U31G
DNA 1: CAATCTGAATTCCGGTCTCCC
DNA 2: TGGTGGCTACGACGGGATT
B18: UGGGGCA (DNA:RNA)
RNA: B7 RNA with C25U, C28G, A29G, A30C, U31A
DNA 1: CAATCTGAATTCCGGTCTCCC
DNA 2: TGGTGGCTACGACGGGATT
B19: CUGGGCC (DNA:RNA)
RNA: B7 RNA with G26U, C28G, A29G, A30C, U31C
DNA 1: CAATCTGAATTCCGGTCTCCC
DNA 2: TGGTGGCTACGACGGGATT
B20: UGAAUAU (DNA:RNA)
RNA: B7 RNA with C25U, G27A, C28A, A29U
DNA 1: CAATCTGAATTCCGGTCTCCC
DNA 2: TGGTGGCTACGACGGGATT
B21: UUUUAUG (DNA:RNA)
RNA: B7 RNA with C25U, G26U, G27U, C28U, A30U, U31G
DNA 1: CAATCTGAATTCCGGTCTCCC
DNA 2: TGGTGGCTACGACGGGATT
B22: CUUGUUA (DNA:RNA)
RNA: B7 RNA with G26U, G27U, C28G, A29U, A30U, U31A
DNA 1: CAATCTGAATTCCGGTCTCCC
DNA 2: TGGTGGCTACGACGGGATT
B23: CCUCAGA (DNA:RNA)
RNA: B7 RNA with G26C, G27U, A30G, U31A
DNA 1: CAATCTGAATTCCGGTCTCCC
DNA 2: TGGTGGCTACGACGGGATT
B24: CUCUGCU (DNA:RNA)
RNA: B7 RNA with G26U, G27C, C28U, A29G, A30C
DNA 1: CAATCTGAATTCCGGTCTCCC
DNA 2: TGGTGGCTACGACGGGATT
B25: UCUUUCA (DNA:RNA)
RNA: B1 RNA with G25U, A26C, A28U, C29U, G30C, C31A
DNA 1: CAATCTGAATTCCGGTCTCCC
DNA 2: TGGTGGCTACGACGGGATT
B26: GGAGGUA (DNA:RNA)
RNA: B7 RNA with C25G, G27A, C28G, A29G, A30U, U31A
DNA 1: CAATCTGAATTCCGGTCTCCC
DNA 2: TGGTGGCTACGACGGGATT
B27: GUCUCUU (DNA:RNA)
RNA: B1 RNA with A26U, U27C, A28U, G30U, C31U
DNA 1: CAATCTGAATTCCGGTCTCCC
DNA 2: TGGTGGCTACGACGGGATT
B28: UAAUACA (DNA:RNA)
RNA: B7 RNA with C25U, G26A, G27A, C28U, A30C, U31A
DNA 1: CAATCTGAATTCCGGTCTCCC
DNA 2: TGGTGGCTACGACGGGATT
B29: GUGGAUU (DNA:RNA)
RNA: B7 RNA with C25G, G26U, C28G, A30U
DNA 1: CAATCTGAATTCCGGTCTCCC
DNA 2: TGGTGGCTACGACGGGATT
B30: CUAGGUC (DNA:RNA)
RNA: B7 RNA with G26U, G27A, C28G, A29G, A30U, U31C
DNA 1: CAATCTGAATTCCGGTCTCCC
DNA 2: TGGTGGCTACGACGGGATT
B31: AGUCUAG (DNA:RNA)
RNA: B7 RNA with C25A, G27U, A29U, U31G
DNA 1: CAATCTGAATTCCGGTCTCCC
DNA 2: TGGTGGCTACGACGGGATT

Target: T1, RBFOX1 RRM RbFoxmut (Fox-RRM*)
Experiment: EMSA; HiTS-Eq, 1 nM pool, 10 min; buffer printed only for the single-RNA assays: 10 mM Tris pH 7.5, 150 mM NaCl, 3.4 mM EDTA, 0.001% NP-40, 30 C
Conditions: tags: His6 N-terminal (pET28a); label: 5' 32P
Procedure, shortened: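 Purified RbFox RRM, wild type or mutant, was incubated for 10 min in 50 µL with 1 nM of a 5′-radiolabelled RNA pool carrying 7 randomized nucleotides, whose flanks were annealed to DNA oligonucleotides, over a series of increasing protein concentrations. Unbound RNA was resolved on 8% native PAGE, cut out, reverse-transcribed, barcoded by PCR and sequenced on an Illumina HiSeq 2500. Relative association constants were derived from changes in read counts for each RNA species versus the control reaction and normalised to the cognate motif.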

| Binder | binding signal |
| --- | --- |
| B1 | 0.0785 KA relative to UGCAUGU |
| B2 | 0.0575 KA relative to UGCAUGU |
| B3 | 0.0917 KA relative to UGCAUGU |
| B4 | 0.116 KA relative to UGCAUGU |
| B5 | 0.0599 KA relative to UGCAUGU |
| B6 | 0.0978 KA relative to UGCAUGU |
| B7 | 0.053 KA relative to UGCAUGU |
| B8 | 0.0863 KA relative to UGCAUGU |
| B9 | 0.116 KA relative to UGCAUGU |
| B10 | 0.0824 KA relative to UGCAUGU |
| B11 | 0.101 KA relative to UGCAUGU |
| B12 | 0.125 KA relative to UGCAUGU |
| B13 | 0.166 KA relative to UGCAUGU |
| B14 | 0.0739 KA relative to UGCAUGU |
| B15 | 0.0995 KA relative to UGCAUGU |
| B16 | 0.0572 KA relative to UGCAUGU |

| Binder | binding signal |
| --- | --- |
| B17 | 0.0746 KA relative to UGCAUGU |
| B18 | 0.101 KA relative to UGCAUGU |
| B19 | 0.275 KA relative to UGCAUGU |
| B20 | 0.0814 KA relative to UGCAUGU |
| B21 | 0.149 KA relative to UGCAUGU |
| B22 | 0.134 KA relative to UGCAUGU |
| B23 | 0.109 KA relative to UGCAUGU |
| B24 | 0.101 KA relative to UGCAUGU |
| B25 | 0.0623 KA relative to UGCAUGU |
| B26 | 0.121 KA relative to UGCAUGU |
| B27 | 0.0731 KA relative to UGCAUGU |
| B28 | 0.0677 KA relative to UGCAUGU |
| B29 | 0.1 KA relative to UGCAUGU |
| B30 | 0.133 KA relative to UGCAUGU |
| B31 | 0.102 KA relative to UGCAUGU |
